Measured values reported in the RNAGym collection of RNA variant scans (doi:10.7554/elife.90254).
The source gives no read counts; variants with many changes may rest on few reads.

B1: LINE1-mini (parent)
chain: GGCAGAGCUCAACACAGCGUGGCAAAGUGGCUGUGGCUAGACUGCC

Variants of: B1
Experiment: self-cleavage, relative activity (ratio to wild type); higher = more cleavage; in vitro, sequencing; the parent is a self-cleaving ribozyme
For C8A C18U G21U G35C A39G U43A, the self-cleavage was 0.02. C10A G22U C31A gave a self-cleavage of 0.01. C18U U34A G44A gave a self-cleavage of 0. In the case of G7C U9A A11U G44C, the self-cleavage is reported as 0.02. C13U C18U C23A U34A showed a self-cleavage of 0.01. G7C C15U C31G G36U A39G showed a self-cleavage of 0.02. U20C G40A C46A gave a self-cleavage of 0.33. C3A A12C G27U G30C showed a self-cleavage of 0.01. C10U G17C A24C C31G G36A C37U U38A C42G gave a self-cleavage of 0. C15A G35U C46A gave a self-cleavage of 0.04. A12U G40A C45A C46U showed a self-cleavage of 0.02. In the case of C13U A25C G44U, the self-cleavage is reported as 0.01. With G22U U32C G36A the self-cleavage was 0.12. A4U C18A C37A A39U gave a self-cleavage of 0.04. In the case of A25C C37G A39G, the self-cleavage is reported as 0.03. Variant G1U G2A A6U C13U G19U G35U has a self-cleavage of 0.07. C10G A11C U28A C45G showed a self-cleavage of 0.01. Variant A14G C23A G33C U34G has a self-cleavage of 0. Variant C3A A4C C13A G40U has a self-cleavage of 0.07. G33A C37U C45A gave a self-cleavage of 0.03. A11G U32G G40C A41C gave a self-cleavage of 0. With A6C A16C G35U the self-cleavage was 0.04. Variant C3A A4C C10A G33A G44U has a self-cleavage of 0.63. With C8U G29U G40U the self-cleavage was 0.22. C8A U9C C10G C18G G19A gave a self-cleavage of 0.01. G29U C31G G44U C45A showed a self-cleavage of 0.19. Work on G2C C10A C18A G19C G36U yielded a self-cleavage of 0.01. Work on C3A C13A A26U yielded a self-cleavage of 1.94. With U9A A11U A12C the self-cleavage was 0.03. Work on G27U G29C G36C G44U yielded a self-cleavage of 0.06. C13U A16G U20C C45U showed a self-cleavage of 0.01. For G7U A24G G35U G36U, the self-cleavage was 0.23. With G5U C18U C31A the self-cleavage was 0.02. Variant C3A G7C U32A has a self-cleavage of 0.09. Work on A24G U43A C45G yielded a self-cleavage of 0.05. Work on G7A U34C C46G yielded a self-cleavage of 0.07. In the case of G2A U20A G21C G27U G44U, the self-cleavage is reported as 0.07. Work on G1C G2A C3U A12G yielded a self-cleavage of 0.01. A14U A26U G30A C31G showed a self-cleavage of 0.51. For G17C G27U G29A, the self-cleavage was 0.41. In the case of A12C C31A G35C U43C, the self-cleavage is reported as 0. In the case of C10G A16C G22C C23U, the self-cleavage is reported as 0.04. In the case of A16G A39U C42U, the self-cleavage is reported as 0. G1U G5U G27C C42G gave a self-cleavage of 0.06. C10A C18G U34A showed a self-cleavage of 0.05. C10U G29A C37A A39C gave a self-cleavage of 0.01. A26C G27U U43A showed a self-cleavage of 0.07. In the case of G1A C15G G36C, the self-cleavage is reported as 0.09. In the case of A11G C15U A39C, the self-cleavage is reported as 0. Variant C10A C31U C37A has a self-cleavage of 0.01. Work on G2A G22U C23A G30A yielded a self-cleavage of 0.8. Work on G17U G29C U38A yielded a self-cleavage of 0.22. C3A C37G U38G gave a self-cleavage of 0.02. Variant G19U G40A A41C has a self-cleavage of 0.02. Variant C10A G27C A41C has a self-cleavage of 0.01. For C18U G36C U38A, the self-cleavage was 0.04. Variant A4U A25G G33U G35U has a self-cleavage of 0.04. In the case of G5C G17A U32C A39U, the self-cleavage is reported as 0.01. Variant A14G G33U G35U has a self-cleavage of 0.1. With G1U G30C G36A C46G the self-cleavage was 0.01. Work on G19U A26U U32G G35U C42U yielded a self-cleavage of 0.03. Variant C13U A16U C23U A25G C31A has a self-cleavage of 0.06. For A6G A14G A24C G33U, the self-cleavage was 0. A4G G7A C8G G22U U28G C37G G40C showed a self-cleavage of 0.04. G1U U43A C45A C46U showed a self-cleavage of 0.07. Variant G21A C23A G27U C37G has a self-cleavage of 0.02. With A12G A14U G17C G21A A41U the self-cleavage was 0.01. For C8U C15G A16U G33U, the self-cleavage was 0. With G22U A26C A41U U43C the self-cleavage was 0.07. Variant C31A G36C C37A has a self-cleavage of 0.04. For A12G G27U G40A, the self-cleavage was 0.06. For G17U U20A U28C C45U, the self-cleavage was 0.14. Variant G30C C31G U32G C42A has a self-cleavage of 0.02. Variant G2C U9C A12U A14U has a self-cleavage of 0.02. A11G U32A G36U showed a self-cleavage of 0.01. With A12U U43G C45G the self-cleavage was 0.01. C3U G36U C46U gave a self-cleavage of 0.13. Work on U9A C10A G19C yielded a self-cleavage of 0.01. For A11G A16G C18U G21A G30U, the self-cleavage was 0.01. With G7A U38A U43C the self-cleavage was 0.06. For A4C C10A G36U C46A, the self-cleavage was 0.07. In the case of C3A U9A G40A, the self-cleavage is reported as 0.34. Work on G2U C10G U34C yielded a self-cleavage of 0. For A6G G7U C10A U34C C45G, the self-cleavage was 0.01. Variant C3A G33A A39U A41U has a self-cleavage of 0.07. In the case of G5C G36C G44U, the self-cleavage is reported as 0.01. For C3U G5U G7A, the self-cleavage was 0.2. Variant A4U C8A A12G U38G G44A C46G has a self-cleavage of 0.04. For G2U G7U G30A, the self-cleavage was 0.09. With A11U G33A A41C the self-cleavage was 0.01. In the case of C10U G19C C31G, the self-cleavage is reported as 0.07. Variant C18U G22U G33A C37A has a self-cleavage of 0.16. C3U C42G C45G gave a self-cleavage of 0. Variant C15U C18G C46U has a self-cleavage of 0.03. Variant A6U A11C G22A G30A C45U has a self-cleavage of 0.04. Work on C3A C13G C18G G29U G30U A41G yielded a self-cleavage of 0.13. A12U G33C U38G gave a self-cleavage of 0. For C18A U28C G33C U38G, the self-cleavage was 0. With A16C G22U C31U the self-cleavage was 0.01. G1U C3G G5C C10U gave a self-cleavage of 0.13. G7A U9A A12U A14U C37U showed a self-cleavage of 0.02. G17U G22C A24C U32C gave a self-cleavage of 0.1. In the case of C10A G17U C18G C23U, the self-cleavage is reported as 0.02. With G21U G29C G30U the self-cleavage was 0.31. Work on G1C C23U U32A G35U A39C U43A yielded a self-cleavage of 0. Work on A4C U28A G29C C45U yielded a self-cleavage of 0.08. Variant C8U G21C C46A has a self-cleavage of 0.78. U38C C42A C46A showed a self-cleavage of 0.37. C3G A6C A16C G36U showed a self-cleavage of 0.09. For G1U G7C G33A, the self-cleavage was 0.05. C3U U34C C37U A39C C46A gave a self-cleavage of 0.05. Work on A25U G30A A39G yielded a self-cleavage of 0.09. C10A A14C G17C A25U U28A G30U showed a self-cleavage of 0. Variant G2A C10A C23A U32G has a self-cleavage of 0. In the case of A6U C10U U34A G36A C42A, the self-cleavage is reported as 0. Work on G17A G19A G40U yielded a self-cleavage of 0.02. In the case of C18U G27A G29U G44U C46U, the self-cleavage is reported as 0.07. In the case of A4C U9A C45U, the self-cleavage is reported as 0.04. For C13A A14C C45A, the self-cleavage was 0.01. Work on A12G C18U G22U A39U yielded a self-cleavage of 0.02. Variant G1U A12C G40U has a self-cleavage of 0.03. In the case of C3U C15A G44C, the self-cleavage is reported as 0.11. For G7C A11G G40A G44U, the self-cleavage was 0. G1C C15U A26C showed a self-cleavage of 0.18. Work on G19A C23U U32C yielded a self-cleavage of 0.33. Variant G5A U9C G27A has a self-cleavage of 0.06. Variant C3A A24C A41U C42G C46A has a self-cleavage of 0.08. U28C G30C C45U showed a self-cleavage of 0.57. C18G A25G A26G gave a self-cleavage of 0.09. In the case of G5U A11U G36A U38A A41C C42G U43A, the self-cleavage is reported as 0. With G29A G30U C31U G36U the self-cleavage was 0.05. C10U A11G G36A gave a self-cleavage of 0.01. With C8G U20A C31A G33U the self-cleavage was 0.01. A14U C37U A39G G40U showed a self-cleavage of 0. For G2U C18G A25U G29U, the self-cleavage was 0.01. G30A C31U U38C showed a self-cleavage of 0.08. C13G G19U A39C G40C gave a self-cleavage of 0.1. G1A C23U G44U gave a self-cleavage of 0.26. Work on C8A A25U C45G yielded a self-cleavage of 1.09. Variant A6U C18A G35C U38A has a self-cleavage of 0.09. Variant C15U C18G G27C A39C has a self-cleavage of 0.09. Work on C13A A26G C31A U34C C37A yielded a self-cleavage of 0.08. With U9A C15A G19C C23A C37G the self-cleavage was 0.09. Variant C3G C31U A39G has a self-cleavage of 0.08. Variant G2C G30C U43C has a self-cleavage of 0.09. In the case of C8G G21U U32G G35A, the self-cleavage is reported as 0.03. In the case of A16G C18U U32G C45A, the self-cleavage is reported as 0.01. A4C C18A A26U showed a self-cleavage of 0.24. C13U G19A C23G showed a self-cleavage of 0.08. In the case of C10U A11C A26G, the self-cleavage is reported as 0. Work on G7C C13A C23A G33U C42G yielded a self-cleavage of 0.05. Work on G22A U34C C42U yielded a self-cleavage of 0.05. In the case of C10A G35A C37A A39G, the self-cleavage is reported as 0.01. In the case of G5U C8A U28G, the self-cleavage is reported as 0.19. U20A G36C C42G showed a self-cleavage of 0.02. Work on U9C G17U A25U G40A yielded a self-cleavage of 0.03. For G2C A6G C31U, the self-cleavage was 0.06. For U28C U32A A41C G44A, the self-cleavage was 0.07. For G1U A26U G36A, the self-cleavage was 0.15. In the case of C15A U32A C45G, the self-cleavage is reported as 0.06. A4C G22A G40A gave a self-cleavage of 0.09. Work on A6G G7C G36U C42G yielded a self-cleavage of 0.03. C10A A11C G19U A41U gave a self-cleavage of 0.03. Work on G7A G17A C23A yielded a self-cleavage of 0.1. C13A A26C U34C showed a self-cleavage of 0.03. C31A A39G G44U showed a self-cleavage of 0.01. For C3U A11U A16C C23U A25U, the self-cleavage was 0.01.
